The record followed here is PMC12820563, “FoxP3 forms a head-to-head dimer in vivo and stabilizes its multimerization on adjacent microsatellites”.

This is one part of the list.

This assay addresses T1, MBP-FoxP1dN (Mus musculus, UniProt P58462 326-579).
T1 sequence: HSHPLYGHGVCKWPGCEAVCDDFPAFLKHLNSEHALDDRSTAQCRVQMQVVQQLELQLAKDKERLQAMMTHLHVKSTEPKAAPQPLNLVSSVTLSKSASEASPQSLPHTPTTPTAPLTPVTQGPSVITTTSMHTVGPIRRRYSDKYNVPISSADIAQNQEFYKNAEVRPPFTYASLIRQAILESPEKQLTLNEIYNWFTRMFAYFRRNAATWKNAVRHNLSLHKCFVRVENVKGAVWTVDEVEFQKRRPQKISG
Nature of the assay: PD-seq (MBP pull-down with sequencing); 20 mM Tris-HCl pH 7.5, 100 mM NaCl, 1.5 mM MgCl2, 0.4 uM protein, 0.1 uM dsDNA library, 30 min, room temperature, amylose pull-down; high values mean tight binding. Particulars: protein: recombinant; tags: His6-MBP; chain copies: 2; dsDNA, one strand shown. Put shortly:
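His6-MBP-tagged mouse FoxP3 or FoxP1 fragment lacking the N-terminus, expressed in E. coli, was mixed at 0.4 µM with 0.1 µM Klenow-filled double-stranded degenerate DNA library. Incubation was 30 min at room temperature in Tris pH 7.5 buffer with NaCl and MgCl2. Complexes were caught on amylose resin and washed three times; DNA was released with proteinase K, PCR-barcoded and Illumina-sequenced. Binding is reads-per-million enrichment, pull-down over input, with replicates pooled.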
Take “GATGATTGTTCTCCCAGCTGATGAATTGCCTTGGTCGAGTAAACAAATTTTCCTAATCTTTCTGTTCAAGCGCCATCTAC”: the binding signal was 0.865 RPM ratio (pull-down/input). Then “GATGATTGTTCTCCCAGCTGATGAATTTCCACCTTCGAGTAAACAAATTTTCCTAATCTTTCTGTTCAAGCGCCATCTAC”, with 0.855 RPM ratio (pull-down/input); and “GATGATTGTTCTCCCAGCTGATGAATTTCTACGGTCGAGTAAACAAATTTTCCTAATCTTTCTGTTCAAGCGCCATCTAC”, with 0.821 RPM ratio (pull-down/input).

As to “GATGATTGTTCTCCCAGCTGATGAATTCGTTCAATCGAGTAAACAAATTTTCCTAATCTTTCTGTTCAAGCGCCATCTAC”, the binding signal was 0.909 RPM ratio (pull-down/input). For “GATGATTGTTCTCCCAGCTGATGAATTGGAGTACTCGAGTAAACAAATTTTCCTAATCTTTCTGTTCAAGCGCCATCTAC” the value was 0.851 RPM ratio (pull-down/input); for “GATGATTGTTCTCCCAGCTGATGAATTCTATCAATCGAGTAAACAAATTTTCCTAATCTTTCTGTTCAAGCGCCATCTAC”, 1.04 RPM ratio (pull-down/input); for “GATGATTGTTCTCCCAGCTGATGAATTGTAGCACTCGAGTAAACAAATTTTCCTAATCTTTCTGTTCAAGCGCCATCTAC”, 1 RPM ratio (pull-down/input). For “GATGATTGTTCTCCCAGCTGATGAATTTCCCTCGTCGAGTAAACAAATTTTCCTAATCTTTCTGTTCAAGCGCCATCTAC” the value was 0.774 RPM ratio (pull-down/input); for “GATGATTGTTCTCCCAGCTGATGAATTCAAGTACTCGAGTAAACAAATTTTCCTAATCTTTCTGTTCAAGCGCCATCTAC”, 0.872 RPM ratio (pull-down/input). Then “GATGATTGTTCTCCCAGCTGATGAATTGTCCCAGTCGAGTAAACAAATTTTCCTAATCTTTCTGTTCAAGCGCCATCTAC”, with 0.959 RPM ratio (pull-down/input). Consider “GATGATTGTTCTCCCAGCTGATGAATTCCCGTATTCGAGTAAACAAATTTTCCTAATCTTTCTGTTCAAGCGCCATCTAC”, for which the binding signal was 0.957 RPM ratio (pull-down/input). Consider “GATGATTGTTCTCCCAGCTGATGAATTATTAGTATCGAGTAAACAAATTTTCCTAATCTTTCTGTTCAAGCGCCATCTAC”, for which the binding signal is 1.46 RPM ratio (pull-down/input). Then “GATGATTGTTCTCCCAGCTGATGAATTTGCGCCTTCGAGTAAACAAATTTTCCTAATCTTTCTGTTCAAGCGCCATCTAC”, with 1.02 RPM ratio (pull-down/input); and “GATGATTGTTCTCCCAGCTGATGAATTGTTACTGTCGAGTAAACAAATTTTCCTAATCTTTCTGTTCAAGCGCCATCTAC”, with 1.34 RPM ratio (pull-down/input).

With “GATGATTGTTCTCCCAGCTGATGAATTCAAAAGCTCGAGTAAACAAATTTTCCTAATCTTTCTGTTCAAGCGCCATCTAC”, the binding signal was 0.896 RPM ratio (pull-down/input). Then “GATGATTGTTCTCCCAGCTGATGAATTGAGCTGGTCGAGTAAACAAATTTTCCTAATCTTTCTGTTCAAGCGCCATCTAC”, with 0.754 RPM ratio (pull-down/input); and “GATGATTGTTCTCCCAGCTGATGAATTAGCTCCCTCGAGTAAACAAATTTTCCTAATCTTTCTGTTCAAGCGCCATCTAC”, with 0.772 RPM ratio (pull-down/input). For “GATGATTGTTCTCCCAGCTGATGAATTGCATATCTCGAGTAAACAAATTTTCCTAATCTTTCTGTTCAAGCGCCATCTAC” the value was 1.19 RPM ratio (pull-down/input).
